# Source: a collection of fitness landscapes (doi:10.1016/j.celrep.2020.107928)
# In all, about 81,000 sequences were measured (“one-hybrid fitness for binding NBS DNA”: median about -0.1, highest 2% from about 0.36 on). Some of the results follow.
# B1: Caulobacter ParB omega fusion; a variant is named by its letters at X, in order, B8GW30 (parent)
# chain: MESVVVGEPGMSEGRRGLGRGLSALLGEVDAAPAQAPGEQLGGSREAPIEILQRNPDQPRRTFREEDLEDLSNSIREKGVLQPILVRPSPDTAGEYQIVAGERAWRAAQRAGLKTVPIMVRELDDLAVLEIGIIENVQRADLNVLEEALSYKVLMEKFERTQENIAQTIGKSXSHVANXMRLLXLPDEVQSYLVSGELTAXHARAIAAAADPVALAKQIIEGGLSVRETEALARKAPNLSAGKSKGGRPPRVKDTDTQALESDLSSVLGLDVSIDHRGSTGTLTITYATLEQLDDLCNRLTRGI
# Variants of: B1
# Assay: one-hybrid fitness for binding NBS DNA (the Noc-binding site; scaled: cognate 1, non-cognate 0); higher = stronger binding
# Conditions: with NBS DNA site
# How it was run: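 Selection: bacterial one-hybrid in E. coli USO, HIS3 reporter with the site 19 bp from the promoter, 48 hours at 37°C on M9-minus-histidine plus 0.1 mM IPTG and 5 mM 3-AT. Libraries were Caulobacter ParB with four randomised specificity codons, sequenced on Illumina before and after selection. Fitness is the rescaled log change in variant-to-wild-type read ratio, anchored to the cognate and non-cognate sites.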
row,Variant,one-hybrid fitness for binding NBS DNA
1,NGGN,≤ 0.2
2,CFGC,≤ 0.2
3,QYNE,≤ 0.2
4,LMDK,≤ 0.2
5,EDHG,≤ 0.2
6,YPVA,≤ 0.2
7,HYRW,≤ 0.2
8,LDKK,≤ 0.2
9,QQWT,0.44
10,PLHA,≤ 0.2
11,EVPS,≤ 0.2
12,NVPP,≤ 0.2
13,QCSP,≤ 0.2
14,FWQS,≤ 0.2
15,RGEF,≤ 0.2
16,RLCA,≤ 0.2
17,SHRD,≤ 0.2
18,QLYD,≤ 0.2
19,PHWR,≤ 0.2
20,RKKR,0.768
21,FRNG,≤ 0.2
22,FLHG,≤ 0.2
23,NFDR,≤ 0.2
24,FSYS,≤ 0.2
25,QNIL,≤ 0.2

row,Variant,one-hybrid fitness for binding NBS DNA
1,RRWW,≤ 0.2
2,SACS,≤ 0.2
3,GVNA,≤ 0.2
4,RCQQ,≤ 0.2
5,LHQE,≤ 0.2
6,RSIE,≤ 0.2
7,RQQD,≤ 0.2
8,INLC,≤ 0.2
9,NVKG,≤ 0.2
10,HLPF,≤ 0.2
11,DFYC,≤ 0.2
12,LNEM,≤ 0.2
13,TPKC,≤ 0.2
14,PDVG,≤ 0.2
15,ETCC,≤ 0.2
16,NVWA,≤ 0.2
17,VAHN,≤ 0.2
18,QCML,≤ 0.2
19,LSLC,≤ 0.2
20,ATRP,≤ 0.2
21,PTPD,≤ 0.2
22,QHIH,≤ 0.2
23,SSGK,≤ 0.2
24,GVFP,≤ 0.2
25,RCLI,≤ 0.2

row,Variant,one-hybrid fitness for binding NBS DNA
1,DDGT,≤ 0.2
2,SDSF,≤ 0.2
3,WRQC,≤ 0.2
4,CANE,≤ 0.2
5,NTRF,≤ 0.2
6,LKRV,≤ 0.2
7,GRFI,≤ 0.2
8,QLDF,≤ 0.2
9,SCEC,≤ 0.2
10,NNTG,≤ 0.2
11,ACTN,≤ 0.2
12,NGED,≤ 0.2
13,RPDA,≤ 0.2
14,LVIW,≤ 0.2
15,KDHC,≤ 0.2
16,RHRY,0.271
17,TRQR,0.351
18,SLHC,≤ 0.2
19,KDDS,≤ 0.2
20,HSMI,≤ 0.2
21,AVAL,≤ 0.2
22,TVLQ,≤ 0.2
23,PDLS,≤ 0.2
24,PPVG,≤ 0.2
25,DRHA,≤ 0.2

row,Variant,one-hybrid fitness for binding NBS DNA
1,GATE,≤ 0.2
2,LLAC,≤ 0.2
3,FKCS,≤ 0.2
4,TICV,≤ 0.2
5,VPYR,≤ 0.2
6,QDKI,≤ 0.2
7,MDSS,≤ 0.2
8,PMKY,≤ 0.2
9,MLNW,≤ 0.2
10,PGHW,≤ 0.2
11,DNRI,≤ 0.2
12,QRID,≤ 0.2
13,CMSR,≤ 0.2
14,TNKL,≤ 0.2
15,VSPR,≤ 0.2
16,MHWS,≤ 0.2
17,YSLL,≤ 0.2
18,TCYH,≤ 0.2
19,IESG,≤ 0.2
20,LTTP,≤ 0.2
21,TCLI,≤ 0.2
22,VHRR,0.248
23,TGPL,≤ 0.2
24,MNKR,0.229
25,ALME,≤ 0.2

row,Variant,one-hybrid fitness for binding NBS DNA
1,LMET,≤ 0.2
2,HACT,≤ 0.2
3,HKAG,≤ 0.2
4,KLTL,≤ 0.2
5,VTPS,≤ 0.2
6,DGRY,≤ 0.2
7,TILV,≤ 0.2
8,VHIG,≤ 0.2
9,QYSM,≤ 0.2
10,SKPI,≤ 0.2
11,YDPM,≤ 0.2
12,TRRG,≤ 0.2
13,AIYV,≤ 0.2
14,QTWT,0.543
15,GSHP,≤ 0.2
16,QQIT,0.389
17,ESVM,≤ 0.2
18,YREW,≤ 0.2
19,ECMS,≤ 0.2
20,DKAR,≤ 0.2
21,KKNT,0.425
22,WGRI,≤ 0.2
23,RMNI,≤ 0.2
24,MKSR,≤ 0.2
25,RVWL,≤ 0.2

row,Variant,one-hybrid fitness for binding NBS DNA
1,MHEG,≤ 0.2
2,ALNY,≤ 0.2
3,SHWC,≤ 0.2
4,INCG,≤ 0.2
5,PSSC,≤ 0.2
6,RCQK,≤ 0.2
7,RWCP,≤ 0.2
8,EVMV,≤ 0.2
9,NPIT,≤ 0.2
10,GNWR,≤ 0.2
11,LESV,≤ 0.2
12,LQYM,≤ 0.2
13,KHLC,≤ 0.2
14,KKPY,≤ 0.2
15,REHY,≤ 0.2
16,NSTA,≤ 0.2
17,IDTG,≤ 0.2
18,WSKG,≤ 0.2
19,QDNQ,≤ 0.2
20,QPAG,≤ 0.2
21,PFAN,≤ 0.2
22,VDVR,≤ 0.2
23,PYYF,≤ 0.2
24,YKDW,≤ 0.2
25,YQQD,≤ 0.2

row,Variant,one-hybrid fitness for binding NBS DNA
1,CNCM,≤ 0.2
2,TDQR,≤ 0.2
3,AWQG,≤ 0.2
4,IVSR,≤ 0.2
5,PFGR,≤ 0.2
6,TYSN,≤ 0.2
7,TMSS,≤ 0.2
8,VWTC,≤ 0.2
9,PHSF,≤ 0.2
10,RHHE,≤ 0.2
11,NIWS,≤ 0.2
12,TCMK,≤ 0.2
13,ICDS,≤ 0.2
14,QIMD,≤ 0.2
15,HEAL,≤ 0.2
16,LMIR,≤ 0.2
17,NSRR,≤ 0.2
18,PTYM,≤ 0.2
19,LHHG,≤ 0.2
20,YKNA,≤ 0.2
21,TFRV,≤ 0.2
22,MLSR,≤ 0.2
23,RQTE,≤ 0.2
24,HWVG,≤ 0.2
25,DGAP,≤ 0.2

row,Variant,one-hybrid fitness for binding NBS DNA
1,PEGA,≤ 0.2
2,ELTC,≤ 0.2
3,TWEL,≤ 0.2
4,ARNS,≤ 0.2
5,RIYW,≤ 0.2
6,RFAM,≤ 0.2
7,KRAR,0.541
8,SNVF,≤ 0.2
9,RHNW,≤ 0.2
10,AIMF,≤ 0.2
11,VTMI,≤ 0.2
12,HNGA,≤ 0.2
13,VDDD,≤ 0.2
14,NTYT,≤ 0.2
15,TNKV,≤ 0.2
16,DQSF,≤ 0.2
17,QDEM,≤ 0.2
18,GNNT,≤ 0.2
19,KAMI,≤ 0.2
20,WTQG,≤ 0.2
